# The supplement of paper PMC11417369
# ± gives the standard deviation of the averaged measurements. The list shows a part of the results.
# System: PfAP2-I AP2 domain 3 (GST-tagged)
# Assay: gcPBM binding intensity (ln(normalized median fluorescence intensity)); higher = stronger DNA binding
# Procedure, shortened: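 Binding intensity is the highest Masliner-normalised natural-log median intensity over replicate spots in either probe orientation. To obtain it, GST-tagged P. falciparum DNA-binding domains made in E. coli were incubated for 1 h on an Agilent 4 × 180k array of primer-extended double-stranded 36-bp intergenic genomic probes plus negative controls. Detection used Alexa488 anti-GST antibody with scanning at 488 nm.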
row,Sequence,gcPBM binding intensity (ln)
1,TTCTTTGTAGTATATTAACACACAACTGTTTATAAT [CACACA_site9305],8.02 ± 0.59
2,AAAGGATATAATACCATACACACATTTATAAAATAA [CACACA_site1931],7.77 ± 0.54
3,AAAAGAAAATATATGTGTACTAAAATATATATATAT [XGTACX_site3817],9.455 ± 0.021
4,ACTTTTATTCGCTTACGTACATATATTATATATTAT [XGTACX_site4459],8.75 ± 0.55
5,GTTTATTAAACATTAGTGCAATTTTAATCCATTCTA,9.36 ± 0.085
6,TACCTACACTTTTGGAGTACAATTAAAAAAAAAAAA [XGTACX_site1403],8.04 ± 0.7
7,TTTAAAGTAATAAAGTGTACAAAAATAAATTCAGCT [XGTACX_site8651],8.29 ± 0.59
8,ATATATATATATAACTGTACTTATATATACATTTTA [XGTACX_site8605],9.22 ± 0.11
9,ATATATATATATATATGTACATATATATATAATTTT [XGTACX_site4146],9.43 ± 0.64
10,TAAATAAATAAAAAAACACACATATATATATATATA [CACACA_site4029],9.63 ± 0.59
11,ATCAAGCACCAACACACACACACACCCCCACCCACA [CACACA_site370],9.23 ± 0.15
12,TTTTATCACATTATTGCACACACATAAAGAAAAAAA [CACACA_site8922],10 ± 0.48
13,AATAATATAGATTGTACACACAAAATGGGAAAAAAA [CACACA_site1886],8.19 ± 0.67
14,ATAAATGGAAACAAAAGTACTAAAAAAAAAAAATAA [XGTACX_site1510],7.67 ± 0.71
15,ATTATGTATATAAATTAACACACATATGTGGTTAAT [CACACA_site9028],7.76 ± 0.49
16,ACGGGTCAATATATGCGTACTTATTTAAATAATTAA [XGTACX_site1518],7.92 ± 0.3
17,TATATATGTATGTATTGTACAATTAAAAATATGTAT [XGTACX_site3990],7.88 ± 0.53
18,AAAAAAAAAAAAGATACACACAAAAATGAATATATA [CACACA_site2099],7.46 ± 0.34
19,ATAAAATATTAATTTTAAATTAATCAATATATATAA [GTGCAC_negctrl_site474],7.41 ± 0.42
20,ATTAATATTCTATATGCATGTGAACCATGGTATATA [TGCATGCA_site430],7.7 ± 0.69
21,ATATATATATATATATGTACTTATTTATCGTATTAT [XGTACX_site3520],9.32 ± 0.27
22,TCATATCTTTTGAGCACACATATATATATATAAAGG [CACACA_site3338],8.44 ± 0.21
23,ATTTTTTCTTATAATGCATGTAGAAAACCGTACAGC [TGCATGCA_site57],8.12 ± 0.6

row,Sequence,gcPBM binding intensity (ln)
1,AGGCTCAAATCTAGGTGTACCATTATCGTTGTATCT [XGTACX_site4730],7.64 ± 0.58
2,TATGTGTTTATTTGGTGTACATACTAATAAATATAC [XGTACX_site1682],8.26 ± 0.14
3,CCTAAATTATATTATGCACACTTAAAAATATATTTA [CACACA_site5861],10.2 ± 0.73
4,ATATAATAAAATGACACACGCATATATATATATATA [CACACA_site2789],9.44 ± 0.42
5,TTTCTTTTTAAATATATACACACCGTGGGTACATAT [CACACA_site9102],7.92 ± 0.49
6,TTATATTTATTTATTTGTACATATTTTTTTTTATAT [XGTACX_site1669],7.76 ± 0.16
7,ATACTAAAAAGTATCTGTACTTATTTTAAAAATAAA [XGTACX_site4116],7.82 ± 0.21
8,TAAAAAATGAAAAAGCGTACATGTTTTCTTATATTA [XGTACX_site1722],7.65 ± 0.41
9,TTTTCTAAAATGAATTGTACTTGATTATTTAAAAAA [XGTACX_site6097],7.53 ± 0.28
10,TGTATCATAAAAATAACACACGTATTTTTTTTTATT [CACACA_site1050],7.67 ± 0.61
11,TATTTACTTATATGCACACATAAATGTGAATTATGG [CACACA_site3777],9.39 ± 0.3
12,TAAATAATTAAAATATGTACTGAAATGTAATTATTT [XGTACX_site5894],7.81 ± 0.4
13,ATATAAATTTTTTAGAGTACTAAAATAAAATAATAT [XGTACX_site2118],7.79 ± 0.4
14,TTATTTATATATTCATGTACATAACATTTCATTCGA [XGTACX_site4388],7.89 ± 0.33
15,TTTTAAGAATAAAATTGTACACATACATGTGTTCGC [XGTACX_site438],7.58 ± 0.59
16,TTCTCATTCAAATTAGTGCATTTTTGTTATTACATT,9.81 ± 0.2
17,AAACAGAAGACATATACACACATACAAAAAAGTGCA [CACACA_site4699],7.79 ± 0.48
18,TGTGTATATATATAATGTACATAAAGATTTATATAT [XGTACX_site5835],7.82 ± 0.51
19,ATAGAAATATATATATGTACATATAGATAAATCTAT [XGTACX_site7833],7.54 ± 0.35
20,ATATGAAATAATAATAGTACATAAAATAATTTTACT [XGTACX_site6964],7.71 ± 0.36
21,ATAAATACAGATAACACACACATATATATATATATA [CACACA_site5431],9.19 ± 0.11
22,AAAAATAACGTAAATTGTACATGTAAAATTTTCTAT [XGTACX_site7158],7.62 ± 0.57
23,TGTTTTATACTAAATGAACACACACCCATATATATA [CACACA_site7912],8.39 ± 0.66

row,Sequence,gcPBM binding intensity (ln)
1,TTATTTATTTATAATAGTACAATTTAATGATCTTCT [XGTACX_site4831],7.54 ± 0.52
2,CAATATATTTGATTTACACACTTACAATGTATATAA [CACACA_site2994],7.91 ± 0.49
3,CCAACATGCCCACGCACACACAAAAAAAGCATGCAT [CACACA_site4217],8.06 ± 0.47
4,AATAATATATATATATATATAATAAAATATAAATAG [CACACA_negctrl_site1515],7.7 ± 0.49
5,AACCTAAGCATTCTTCAAATTATATATGTAAAATGA [CACACA_negctrl_site261],7.42 ± 0.79
6,TCGTATCTATTGAGGGTGCCTCTATAATTGATACAA [GTGCAC_site9636],8.35 ± 0.099
7,TAATATAATATATGCACACAAATATGTATTTATGTG [CACACA_site5210],9.14 ± 0.014
8,GAAAAAATAAAATAAAGTACATAACTATAATAAAAA [XGTACX_site4807],7.9 ± 0.34
9,ATATATAAACACTCTTGTACATAATAATGTATATAT [XGTACX_site2451],7.88 ± 0.38
10,CTTACACCCATATATACACACATGTATATTTTATAT [CACACA_site4462],8.09 ± 0.49
11,TACTCCTCAATATTATGTACATATAATAGTTATAAA [XGTACX_site8551],7.95 ± 0.27
12,TATATAACTGTCTTCAGTACACAATAAATAAAAATA [XGTACX_site8856],7.86 ± 0.41
13,TAATAAAAATAAAATTGTACTAATAACATTTCATTA [XGTACX_site3703],7.26 ± 0.33
14,TTTCAAAAAAATAGCTATATTTATATTAATGCACGA [TGCATGCA_negctrl_site63],11.9 ± 0.45
15,AAAGGTGTATATAATACACACGTGTGATTAAAATTG [CACACA_site8104],7.93 ± 0.55
16,AACTTTGAGACATAGTGTACTTACACAATCTTAATA [XGTACX_site3712],7.79 ± 0.43
17,ACATTTTTTTTTTTTTTTCTTTTTCTTTTTCTTTTT [CACACA_negctrl_site1295],7.72 ± 0.52
18,CATATTTGATACAAGTGTACTTTATTTAAAAATTCT [XGTACX_site8408],7.88 ± 0.17
19,TACATAAATATATGTGTGCACAATTTCGTATATTTA [GTGCAC_site9859],10.74 ± 0.064
20,TGTACATTCGGAGTAAAAAAAAATTTATACAATTAC [CACACA_negctrl_site1451],7.59 ± 0.66
21,AACAGATAAAAGGGTACACACATATATACCTGTACA [CACACA_site4285],8.06 ± 0.43
22,TGTATTAAATTTTGAACACACAAAATAAAACATATA [CACACA_site1672],7.71 ± 0.39
23,AGTATAAAATAAATGTGTACACAAGAAAATATGTTA [XGTACX_site8381],8.63 ± 0.29

row,Sequence,gcPBM binding intensity (ln)
1,AAAATCACAAGACACACACACACAAAAAAAAAAAAA [CACACA_site6791],7.95 ± 0.62
2,AAAATATTTTAATGTTGTACATTAATATATTATATA [XGTACX_site2513],7.52 ± 0.34
3,ATATATATATGTATGTGTCCACAAGGAGATATATAT [XGTACX_site783],9.045 ± 0.021
4,AGTAAATAATAGATCGCATGTAATAACTAGTAGGAA [TGCATGCA_site948],7.78 ± 0.81
5,ATTATAAAGACATATACACACATACGTACATACATA [CACACA_site5893],8.01 ± 0.57
6,ACAATTGAAGAAATACGTACATAAAGAAAAACTAGT [XGTACX_site820],8.39 ± 0.73
7,GTTGTTTCTATAAATTGTACTTAAATATAATTATAT [XGTACX_site585],8.19 ± 0.35
8,ATATATTGTATGTGCTCACACATGTTTCGATATTAT [CACACA_site4336],7.8 ± 0.71
9,GTAAATATGTTTATTAGTACACATATGAAAATAAAT [XGTACX_site5820],7.96 ± 0.38
10,GTTCAAAATATGAACACACACATATATATATATATA [CACACA_site2057],9.35 ± 0.38
11,ATCTACATATATTATTGTACATTGTTAAAAATTTAT [XGTACX_site7769],7.71 ± 0.54
12,TTTCGTAATATGCGTGTGCACAATGAGTCCATATCT,10.5 ± 0.35
13,TTTTTTTTTTTTTGGGGTACATTTTAATTAATATTA [XGTACX_site4866],8.17 ± 0.42
14,TAAAATATAATTAGCACACATATATAAAATATATAT [CACACA_site4093],8.12 ± 0.092
15,TATTTAATGCAAAAACGTACATAAATAACATTCACA [XGTACX_site5356],8.18 ± 0.014
16,TATATATATATTAGTGGTACAAGATTTTTTTCTTTT [XGTACX_site4619],9.17 ± 0.11
17,TATAAACACCCATATAAACACACATACATACATACA [CACACA_site8791],8.93 ± 0.49
18,TTTTTTCATAAATAATGTACATATATATATATATAT [XGTACX_site3620],9.4 ± 0.25
19,TCTTGTAGATATATTTGTACATATATTTATGGGTAT [XGTACX_site1139],7.88 ± 0.43
20,CTAGACTTTTTACAATGTACATATTTATGTATTATT [XGTACX_site1833],7.61 ± 0.46
